For 96 compounds, inhibition results are on record in PubChem BioAssay AID485344 (National Center for Advancing Translational Sciences (NCATS), 2010).

Among all 340,000 compounds or so, about 6,900 (2%) were called active. Rule as the data show it: active = inhibition above about 30%; inactive = below that, where a call was filed. This is a selection; strong and weak results do not stand in their true shares. Where no call is shown, the source filed none.

In this test the target is D(2) dopamine receptor (Homo sapiens) (UniProt P14416). Description: HTS Assay for Allosteric Antagonists of the Human D2 Dopamine Receptor: Primary Screen for Antagonists. Also: 0% is about no effect. The conditions noted are these: HEK293 TREx D2 cells, calcium flux, dopamine EC80; at 10 µM; stronger effect = higher value. In outline: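 Calcium mobilization kinetics were recorded at 1 s intervals in tetracycline-induced HEK293 T-REx D2 cells, first for 180 s after compound addition and then 180 s after EC80 dopamine.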
UniProt P14416, sequence (P14416 whole entry, looked up): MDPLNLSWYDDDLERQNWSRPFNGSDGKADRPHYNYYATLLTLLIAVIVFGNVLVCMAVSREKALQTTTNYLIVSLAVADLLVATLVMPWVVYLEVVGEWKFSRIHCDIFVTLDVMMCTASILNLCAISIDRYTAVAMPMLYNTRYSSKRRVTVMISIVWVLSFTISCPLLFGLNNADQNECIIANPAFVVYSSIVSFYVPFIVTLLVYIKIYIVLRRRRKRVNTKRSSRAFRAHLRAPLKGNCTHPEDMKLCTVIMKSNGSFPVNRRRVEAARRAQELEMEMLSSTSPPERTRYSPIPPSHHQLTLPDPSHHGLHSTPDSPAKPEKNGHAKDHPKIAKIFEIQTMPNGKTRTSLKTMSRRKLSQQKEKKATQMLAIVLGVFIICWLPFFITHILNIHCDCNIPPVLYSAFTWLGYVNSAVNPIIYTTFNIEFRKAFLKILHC
(In general: A change in cytosolic calcium serves as a functional read-out for many receptors and channels.)
A word on the inhibition: it is the drop in the measured response relative to a control, in per cent. As for `CCN1C(=S)SC(=O)C1=C1C=C(C)OC(C)=C1`, the inhibition is active: 57.2%.
For `Cc1ccccc1NC(=O)Cn1c(=O)n(Cc2ccc3c(c2)OCO3)c(=O)c2oc3ccccc3c21` the value was 17.5%.
Take `Cc1ccc(-c2cn3cccc(C)c3n2)cc1NS(=O)(=O)c1ccccc1`: the inhibition was found to be 8.98%.
On to `CCN(Cc1ccc(OC)cc1)c1ccc(-c2nc(-c3ccncc3)no2)cc1[N+](=O)[O-]`, for which the inhibition was 15.9%.
For `CCC(=O)N1CCc2cc(S(=O)(=O)CCC(=O)N3CCN(c4cccc(C)c4)C(C)C3)ccc21` (stereo unspecified) the value was 10.5%; for `Cc1cc(C)c(Cn2c3ccccc3c3cnn(CC(=O)NCCCc4ccccc4)c(=O)c32)c(C)c1`, 4.92%; for `O=C(NCc1cccc(Cl)c1)c1cccn1-c1nnc(N2CCCC2)s1`, 0.804%.
As for `O=C(NCCc1ccccc1)c1ccc(Cn2c(SCc3ccc(F)cc3)nc3cccnc32)cc1`, the figure is -1.83%.
With `COc1ccc(OC)c(S(=O)(=O)N2Cc3ccccc3CC2C(=O)Nc2ccc(C(C)=O)cc2)c1` (stereo unspecified), the inhibition was -16.5%.
As to `CCn1c(=O)c(C(C)=O)nc2ccccc21`, the inhibition was active: 32.8%.
As for `CCc1ccc(-n2nc3ccc(NC(=O)c4cc5ccccc5o4)cc3n2)cc1`, the figure is 19%; as for `Cc1ccc(CNC(=O)c2cn(C)c3ccc(S(=O)(=O)N(C)C4CCCCC4)cc3c2=O)cc1`, 4.55%.
Regarding `Cc1ccc(CNC(=O)c2nc(SCc3cccc(C)c3)ncc2Cl)cc1`, the inhibition was -0.966%.
As for `Cc1ccc(CN2CCN(CCC(C)C)C(CCO)C2)s1` (stereo unspecified), the figure is active: 56.8%; as for `CCOc1ccc(-c2cc3c(=O)n(Cc4nc(-c5cccc(OC)c5OC)oc4C)ccn3n2)cc1Cl`, 9.7%.
With `CCOc1ccc(CC(=O)NCCc2csc3nc(-c4ccccc4F)nn23)cc1`, the inhibition is 9.51%.
As for `Cc1noc(/C=C/N(C)C)c1S(=O)(=O)N1CCCC(C(=O)Nc2cccc(F)c2)C1` (stereo unspecified), the figure is -4.6%; as for `COc1ccccc1N1CCN(Cc2ccc(OC)c(OC)c2OC)CC1`, active: 80.8%.
As for `COc1ccc(CNC(=O)C(=O)NCC(c2ccc3c(c2)OCO3)N2CCOCC2)cc1` (stereo unspecified), the figure is -11.7%; as for `O=C1CC(c2ccccc2)Cc2[nH]c(=O)c(-c3nc(-c4cccc(Cl)c4)cs3)cc21` (stereo unspecified), 3.45%.
Take `COc1ccc(-c2cc(C(=O)N3CCN(c4ccccc4OC)CC3)c3cc(C(C)C)ccc3n2)cc1`: the inhibition is 11.7%.
As for `Cc1ccc(Cl)cc1N1CCN(C(c2ccc(F)cc2)c2nnc(-c3ccccc3)o2)CC1` (stereo unspecified), the figure is -5.71%; as for `CCOC(=O)COn1c(-n2nc(C)cc2C)nc2ccccc2c1=O`, active: 32.8%; as for `O=C(CSc1n[nH]c(-c2ccccc2)n1)N1CCCCC1`, -12%.
For `COC(=O)c1sccc1S(=O)(=O)N1CCN(c2cccc(C)c2C)CC1` the value was -14.7%; for `CCn1c(C)nc2c1C(=O)c1ccccc1C2=O`, active: 34.8%.
Take `O=C(C[n+]1ccc2ccccc2c1)Nc1cc(C(F)(F)F)ccc1Cl`: the inhibition is active: 53.7%.
For the compound `CCOc1ccc(CCNC(=O)CSc2cc(=O)n(C)c3ccccc23)cc1OCC`, the inhibition was -13.9%.
As for `COc1ccc(Cc2nnc(SCC(=O)N(C)c3ccccc3)o2)cc1`, the figure is active: 66%.
As to `COc1ccc2nc(NS(=O)(=O)c3ccc(C)cc3)c(Nc3cc(Cl)ccc3OC)nc2c1`, the inhibition is -10.1%.
For `Fc1ccc(-c2cc(-c3nc(-c4cccc(Cl)c4)no3)[nH]n2)cc1` the value was 3.6%.
For `COc1cc(OC)c(OC)cc1CN1CCc2nc(N3CCN(c4ncccn4)CC3)ncc2C1` the value was -10%; for `COc1cc(OC)c2ccc(=O)oc2c1C(CCN1CCCC(C)C1)c1ccc2c(c1)OCO2` (stereo unspecified), active: 83.5%.
For `CCOC(=O)c1c(NC(=O)Nc2ccc(Cl)cc2)sc(C)c1C` the value was active: 35.8%; for `COc1ccccc1CNC(=O)CSc1ncc2c(n1)-c1ccccc1N(Cc1ccc(C)cc1)S2(=O)=O`, 3.77%; for `COc1ccc(-c2noc(C3CC(=O)N(c4ccc(C)c(F)c4)C3)n2)c(OC)c1` (stereo unspecified), -6.32%.
As to `CCc1nnc(SCc2ccc(F)cc2Cl)c2cc3sccc3n12`, the inhibition was 13.6%.
`Cc1ccc(C)c(NC(=O)C(C)n2c(=O)cc(C(F)(F)F)c3c(C)nn(C)c32)c1` (stereo unspecified): the inhibition was found to be 0.623%.
Take `CC1CCC(NC(=O)c2ccc3c(c2)N(Cc2cccc(F)c2)C(=O)c2ccccc2S3)CC1` (stereo unspecified): the inhibition was 3.4%.
Turning to `CCc1ccc(CNC(=O)c2ccc3c(c2)nc2n3CCOC2)cc1`, the inhibition was -9.57%.
For `COc1ccc(NC(=O)C(=O)NCCc2ccccc2)cc1OC` the value was -2.39%; for `CC(C)c1ccc(NC(=O)C2CCCN(S(=O)(=O)c3ccc(Br)s3)C2)cc1` (stereo unspecified), 2.51%.
On to `COc1cccc(C(=O)Nc2ccccc2C(=O)OCc2cc(=O)n3nc(C)sc3n2)c1`, for which the inhibition stood at 11.7%.
As to `CCOC(=O)c1cccc(NC(=O)c2cc3c(Cl)nc4ccc(C)cc4c3s2)c1`, the inhibition was 11.6%.
For `CCc1ccc(NS(=O)(=O)c2ccc3[nH]cc(C(=O)NC4CCCC4)c(=O)c3c2)cc1` the value was -16.8%; for `COc1ccc(-n2cc(-c3ccccc3)c3c(SC(C)C(C)=O)ncnc32)cc1` (stereo unspecified), 9.09%.
For `CCc1ccc(NC(=O)c2cc3ccccn3n2)cc1` the value was -9.96%; for `COc1ccc(-c2nnc(Nc3ccc(OCC(N)=O)cc3)c3ccccc23)cc1`, 1.45%.
Take `CCc1ccccc1OCCCCN1CCCCC1`: the inhibition is active: 89.4%.
For `O=C(CSc1nc(=O)[nH]c2c1CCCC2)Nc1cc(C(F)(F)F)ccc1Cl` the value was 2.32%.
As for `Cc1cc(C)c2c(CC(=O)Nc3nnc(C(C)C)s3)coc2c1`, the figure is 5%; as for `O=C(CCN1CCN(c2ccccc2)CC1)Nc1ccccc1F`, active: 71.4%.
As for `CCOC(=O)c1ccccc1NC(=O)CSc1ccc(-c2sc(-c3ccccc3)nc2C)nn1`, the figure is -3.45%; as for `COc1ccc(OC)c(-c2nc(Nc3ccccc3C)sc2CC(=O)O)c1`, -4.58%.
`COc1ccc(C2C(C(=O)Nc3ccccc3)=C(C)Nc3nc(-c4ccccc4)nn32)cc1OC` (stereo unspecified): the inhibition turned out to be 0.905%.
For `Cc1cc(C)n(-c2nc3ccccc3nc2Nc2cccc(C(F)(F)F)c2)n1` the value was 3.94%; for `O=C1CCSC2(C(=O)N(Cc3ccc(F)cc3)c3ccccc32)N1c1ccccc1` (stereo unspecified), -6.84%; for `CCOc1ccc(Nc2oc(/C=C/c3ccc(F)cc3)nc2C#N)cc1`, 5.67%.
As for `COc1ccc(CNc2nc3c(S(=O)(=O)c4ccccc4)nnn3c3ccc(Cl)cc23)cc1`, the figure is -14.9%.
For `Cc1ccc(NC(=O)C(=O)NCC(c2cccnc2)N2CCN(C)CC2)cc1C` (stereo unspecified) the value was 0.903%; for `Cc1ccc(OCC(=O)Nc2ccc(C(=O)OCc3cc(=O)n4nc(C5CC5)sc4n3)cc2)cc1`, 23.3%.
For `COc1ccc(NC(=O)c2oc3c(c2C)-c2nn(Cc4c(F)cccc4Cl)cc2CC3)c(OC)c1`, the inhibition is -20.5%.
As for `COc1cccc2cc(-c3nc4sc(C(=O)Nc5ccc(F)cc5F)c(C)c4c(=O)[nH]3)c(=O)oc12`, the figure is 9.55%; as for `CCOC(=O)c1ccccc1NC(=O)N1CCN2CCCCC2C1` (stereo unspecified), 2.16%.
In the case of `COCc1cc(C)nc2sc3c(=O)n(-c4cc(C)ccc4C)nnc3c12`, the inhibition is -19.5%.
Regarding `Cc1ccc(C)c(N2CCN(c3ncnc4onc(C)c34)CC2)c1`, the inhibition turned out to be 8.78%.
As for `COc1ccccc1CCNC(=O)Cc1c(C)c2ccc(O)cc2oc1=O`, the inhibition worked out at 13.7%.
As for `COc1ccc(CCN(C)C2CCCN(C(=O)c3sccc3C)C2)cc1OC` (stereo unspecified), the figure is active: 57%.
As for `CCOC(=O)c1cc(OC(=O)c2cccc(C)c2)n(-c2ccccc2)n1`, the figure is 11.6%.
As to `COCc1cc(C)nc2sc3c(c12)NC(c1ccc(NC(C)=O)cc1)N(c1ccc(C)cc1)C3=O` (stereo unspecified), the inhibition was found to be 7.29%.
With `COc1cccc(CNc2ncnc3onc(-c4ccc(F)cc4)c23)c1`, the inhibition is -3.37%.
For `COc1ccc(-c2cc(C(C)=O)c(C)n2CCC(=O)Nc2cc(C)ccc2OC)cc1` the value was -5.72%.
As for `O=c1c2ccccc2n(Cc2cccc(Cl)c2)c(=O)n1CCc1ccccc1`, the figure is 5.99%; as for `CCN(c1ccccc1)c1nnc(NC(=O)Nc2cccc(C(F)(F)F)c2)s1`, 3.37%.
On to `CC(=O)NCCc1nc2ccccc2n1CCCCOc1ccc(Cl)cc1`, for which the inhibition was -8.62%.
With `O=C(COc1ccccc1)OCC(=O)c1ccc(S(=O)(=O)N2CCCCC2)cc1`, the inhibition was active: 30.9%.
For `Cc1cc(F)ccc1Nc1nc2ccccc2n2nnnc12`, the inhibition was 10.2%.
For `O=C(CSc1nc2cc3ccccc3cc2[nH]1)Nc1cccc(C(F)(F)F)c1` the value was 10.2%; for `CC(C)CCNC(=O)C(=O)Nc1c2c(nn1-c1ccccc1)CS(=O)(=O)C2`, 1.25%; for `N#Cc1c(NC(=O)/C=C/c2ccco2)sc2c1CCCC2`, active: 57.3%.
For `COc1ccccc1N1CCN(S(=O)(=O)c2ccc(-c3cc(C(F)(F)F)on3)s2)CC1` the value was 2.34%.
Consider `CNS(=O)(=O)c1cn(CC(=O)Nc2ccc(OC)c(Cl)c2)cc1S(=O)(=O)NC`, for which the inhibition turned out to be 5.67%.
Regarding `Cc1cc(N2CCCCC2)nc2ccc(NC(=O)c3ccc(F)cc3)cc12`, the inhibition amounted to 0.437%.
As for `COc1cccc(N2C(=O)C(CC(=O)Nc3cccc(F)c3)N(C(C)C)C2=O)c1` (stereo unspecified), the figure is -12.3%.
For `Cc1cccc(CC(=O)NC2CC(=O)N(c3cccc(F)c3)C2)c1` (stereo unspecified) the value was -8.33%; for `CCOC(=O)c1c(NC(=O)CSc2cn(CCNC(=O)c3ccc(OCC)cc3)c3ccccc23)sc2c1CCCC2`, 7.84%; for `COc1ccc(OC)c(NC(=O)C2CCN(S(=O)(=O)c3ccc(C)cc3)CC2)c1`, -6.98%.
For `CC(CNC(=O)Cn1ncc2c3ccccc3n(Cc3cccc(Cl)c3)c2c1=O)c1ccccc1` (stereo unspecified) the value was -0.821%; for `COCCNC(=O)CSc1nc(-c2ccc(F)cc2)[nH]c1-c1ccc(Cl)cc1`, 16.3%.
Consider `CCOc1ccc(C(=O)Nc2ccc(S(=O)(=O)N(Cc3ccccc3)c3ccccc3)cc2)cc1`, for which the inhibition was -13.8%.
`COc1ccc(OC)c(C2CC(=O)N(c3cccc(C)c3)C3=C2C(=O)OC3)c1` (stereo unspecified): the inhibition was found to be 1.78%.
For `O=C(COc1ccccc1)Nc1ccc(OCc2cc(=O)n3ccsc3n2)cc1` the value was 4.61%; for `CCN(CC)c1ccc(NC(=O)c2cnn3c(C(F)F)cc(-c4ccccc4)nc23)cc1`, -9.23%; for `COc1ccc(Cl)cc1NC(=O)C1CCN(c2ncnc3c2nc2n3CCCCC2)CC1`, 22.1%.
For the compound `O=C(CCC(=O)N1Cc2ccccc2Oc2ncccc21)NCc1ccccc1Cl`, the inhibition amounted to 2.52%.
On to `COc1ccc(C(c2c(O)cc(C)n(Cc3ccco3)c2=O)N2CCN(c3ccccc3)CC2)cc1` (stereo unspecified), for which the inhibition amounted to 1.99%.
